# Measured values as given in PubChem BioAssay AID686978 (National Center for Advancing Translational Sciences (NCATS), 2013).
# “And” between values parts separate entries of the source, which are not always exact repeats. Identical values can stand only once. Out of some 420,000 compounds screened, about 64,000 (15%) were called active. This list was built around the results that the source calls inconclusive (neither active nor inactive); the mix of calls is not that of the screen. Calls come from the whole dose curve; as a rule, active = well fitted inhibition curve with a large enough effect; inconclusive = small, poorly fitted or top-dose-only effect; inactive = flat fitted curve, though single readings scatter. Potencies beside an inconclusive call are fits to weak or partial responses and may not hold up.
# Assay: qHTS for Inhibitors of human tyrosyl-DNA phosphodiesterase 1 (TDP1): qHTS in cells in absence of CPT; note: nearly all actives have a fitted effect of over 55% in size
# Details: DT40 Tdp1-/- hTDP1 cells, no CPT, ATP luminescence, 48 h; activity change, negative = growth inhibition: at 46.2 µM (top of the series) unless noted
# Outline: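 Stably hTDP1-transfected Tdp1-null chicken DT40 cells were treated with library compounds minus camptothecin and grown for at least 48 hr at 37 °C, after which cellular ATP was quantified by luminescence.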
# % is set by controls: 0 for no effect and ±100 for the full control effect; potency is the fitted concentration of half-maximal effect; tags give direction and shape of the fitted curve.
SMILES,Potency,"activity change, negative = growth inhibition"
COc1cccc(-n2c(SCC(=O)Nc3cc(C)on3)nc3c([nH]c4ccccc43)c2=O)c1,"inconclusive: 29.1 µM [inhibitor, single point]",
COC(=O)C1=C(NC(=O)C(C)(C)C)CCS1,inactive,
Cc1cc(C)cc(N(CCC#N)C(=O)CSC2=Nc3ccccc3C3CC=NN23)c1 (configuration not stated),"inconclusive: 13 µM [inhibitor, partial curve]",
Cc1ccccc1OCCn1c(CCNC(=O)C(C)C)nc2ccccc21,"inconclusive: 16.4 µM [inhibitor, partial curve]",
Cc1ccc(-c2nc3c(c(SCC(=O)N4CCOCC4)n2)COC(C)(C)C3)cc1,"inconclusive: 29.1 µM [inhibitor, single point]",
Cc1ccc(Cl)cc1NC(=O)CSc1nc2ccccc2nc1Cc1ccccc1,"inconclusive: 14.6 µM [inhibitor, single point]",
C=CCn1c(=O)c(C(=O)NCCc2ccccc2)c(O)c2ccccc21,"inconclusive: 35.5 µM [inhibitor, single point]",
Cc1ccc(-c2cc3nc(-c4ccc(Br)cc4)cc(N)n3n2)cc1,"inconclusive: 14.6 µM [inhibitor, partial curve]",
CCOc1ccc(S(=O)(=O)N2CCOCC2)cc1NC(=O)C1CCC1,inactive,
COC(=O)c1cc(S(=O)(=O)N2CCN(c3cccc(OC)c3)CC2)cn1C,,inconclusive: -32.1% [inhibitor]
CCCCCCCC#Cc1ccccc1/C=N/S(=O)c1ccc(C)cc1 (configuration not stated),active: 18.4 µM,
Cn1c(=O)[nH]c(=O)c2c1nc(CN1CCN(c3ccccc3F)CC1)n2CCCc1ccccc1,active: 14.1 µM,
Cc1ccccc1NC1=C(C(=O)c2ccccc2)N(C)S(=O)(=O)c2ccccc21,"inconclusive: 18.4 µM [inhibitor, single point]",
CCOC(=O)C1(Cc2ccccc2C(F)(F)F)CCN(CC2CC2)CC1,"inconclusive: 29.1 µM [inhibitor, single point]",
Cc1ccc(NC(=O)c2nc[nH]c2C(=O)NCc2ccccc2)cc1,"inconclusive: 29.1 µM [inhibitor, single point]",
COCCNC(=O)c1cc(-c2ccccc2)sc1N,"inconclusive: 29.1 µM [inhibitor, single point]",
CCn1c(SCC(=O)NC2CCCCC2)nc2c(c1=O)SCC2,inactive,
Cc1cc(/C=C2/NC(=O)N(c3ccccc3)C2=O)c(C)n1C(C)C,"inconclusive: 23.1 µM [inhibitor, single point]",
COc1cc(C=NN2CCCCC2)cc(OC)c1OC,inactive,
CCN(c1cccc(C)c1)S(=O)(=O)c1ccc(-c2coc(C)n2)cc1,"inconclusive: 29.1 µM [inhibitor, single point]",
COc1ccccc1C(=O)NCC(=O)N1CCN(C/C=C/c2ccccc2)CC1,"inconclusive: 20.6 µM [inhibitor, single point]",
O=C(N/N=C/c1ccc(N2CCOCC2)o1)c1cccc(F)c1,"inconclusive: 10.3 µM [inhibitor, partial curve, poor fit]",
CC1(C)CC(=O)C2=C(C1)Nc1cc3c(cc1C2c1ccc2c(c1)OCO2)OCO3 (configuration not stated),"inconclusive: 18.4 µM [inhibitor, partial curve]",
NS(=O)(=O)c1ccc(NC(=O)CSC2=NC(=O)C(c3ccccc3)C(=O)N2)cc1 (configuration not stated),"inconclusive: 6.51 µM [inhibitor, single point]",

SMILES,Potency,"activity change, negative = growth inhibition"
CC(=O)OC1COC(n2c(O)c(N=NC(N)=S)c3ccccc32)C(OC(C)=O)C1OC(C)=O (configuration not stated),inactive,
Cc1nc2ccccn2c1C(=O)N/N=C/c1ccccc1,inactive,
COCCCNC(=S)N/N=C/c1ccc2ccccc2c1,inactive,
CCOC(=O)c1sc2nc3c(cc2c1N)COC(C)(C)C3,inactive,
COc1ccc(NC(=O)CCc2c(C)nc3nc(CNC(=O)OC(C)(C)C)nn3c2C)cc1OC,inactive,
CCN1CCN(C(=O)c2ccc(OCC(=O)Nc3ccc(F)cc3)c(OC)c2)CC1,"inconclusive: 16.4 µM [inhibitor, partial curve, poor fit]",
Cc1ccc(OCC(O)CN2CCN(Cc3ccc4c(c3)OCO4)CC2)c(C)c1 (configuration not stated),"inconclusive: 14.6 µM [inhibitor, partial curve] and inconclusive: 23.1 µM [inhibitor, single point]",
O=S1(=O)N=C2CCCCCN2C(c2ccc(Br)cc2)N1 (configuration not stated),inactive,
O=C(Nc1ccc(F)c(Cl)c1)C1CCCN(c2cnccn2)C1 (configuration not stated),"inconclusive: 25.9 µM [inhibitor, single point]",
COc1ccc(Cn2ccnc2SCC(=O)Nc2ccccc2)cc1,inactive,
Cn1c(=O)c2ccccc2n(Cc2cccc(F)c2)c1=O,"inconclusive: 25.9 µM [inhibitor, single point]",
CCc1ccc(NC(=O)CC2C(=O)N(c3cccc(C)c3)C(=O)N2Cc2ccco2)cc1 (configuration not stated),active: 25.9 µM,
Cc1cc(C(C)(C)C)ccc1OCCN1CCCC1,"inconclusive: 29.1 µM [inhibitor, single point]",
COc1ccc(NC(=O)CCS(=O)(=O)c2ccc(Br)s2)cc1,"inconclusive: 29.1 µM [inhibitor, single point]",
C/C(N)=C(/C#N)C(=O)CSc1nc2ccccc2c(=O)n1-c1ccccc1C,"inconclusive: 25.9 µM [inhibitor, single point]",
Cc1cc(N2CCN(c3nc(-c4ccccc4)cs3)CC2)c2ccccc2n1,active: 20.6 µM,
COc1cc2c(c(O)c1OC)-c1c(cc(OC)c(OC)c1OC)C[C@@H](C)[C@@H](C)C2,"inconclusive: 23.1 µM [inhibitor, single point]",
CCCc1cc(=O)oc2cc(OCC(=O)Nc3ccc(S(N)(=O)=O)cc3)ccc12,inactive,
CC1CCN(S(=O)(=O)c2ccc3c(ccn3CCC(=O)NCc3ccc(N(C)C)cc3)c2)CC1,"inconclusive: 29.1 µM [inhibitor, single point]",
CCNC(=S)NNC(=O)c1cc(-c2ccc(OCC)cc2)nc2ccccc12,active: 4.47 µM,
Cc1sc2ncn(CC(=O)NCCCC(=O)N(C)Cc3ccccc3)c(=O)c2c1C,"inconclusive: 29.1 µM [inhibitor, single point]",
CC(=O)c1ccc(NC(=O)COC(=O)CCC2CCCC2)cc1,inactive,
c1ccc(-c2nc3nc4ccccc4nc3n2Cc2ccco2)cc1,active: 22.4 µM,
Cc1ccc2cc(C=O)c(Cl)nc2c1,"inconclusive: 29.1 µM [inhibitor, single point]",

SMILES,Potency,"activity change, negative = growth inhibition"
NC1=NC(=O)C(c2ccccc2)(c2ccccc2)S1,"inconclusive: 29.1 µM [inhibitor, single point]",
COc1ccccc1S(=O)(=O)N(C)C[C@H]1Oc2cc(C#CCC3CCCC3)ccc2S(=O)(=O)N([C@H](C)CO)C[C@H]1C,active: 8.2 µM,
CCS(=O)(=O)N1CCC(C(=O)O)CC1,inactive,
O=C(O)c1cccc(N/N=C/c2cccnc2)c1,"inconclusive: 29.1 µM [inhibitor, single point]",
CC(C)C(OC(=O)c1ccco1)C(=O)NC1CCCCC1 (configuration not stated),"inconclusive: 29.1 µM [inhibitor, single point]",
COc1ccc(S(=O)(=O)N2CCSC2c2ccc(OC)c(OC)c2)cc1 (configuration not stated),active: 16.4 µM,
Cc1ccc(-n2cc(CNC(C)Cn3cncn3)c(-c3ccc(F)cc3)n2)cc1 (configuration not stated),"inconclusive: 29.1 µM [inhibitor, single point]",
Cc1c(C(=O)NC(C)(C)C)sc2ncnc(NCCN(C)C)c12,inactive,
COC1=C(Nc2ccc(O)cc2)C(=O)c2ccccc2C1=O,"inconclusive: 25.9 µM [inhibitor, single point]",
Cc1ccc(C)c2c1CCC(=Cc1ccccc1[N+](=O)[O-])C2=O,"inconclusive: 18.4 µM [inhibitor, single point]",
COc1ccc(-c2nnc3n2CCCCC3)cc1,inactive,
CCc1nc2c(OCCC3CCCCC3)cccn2c1N(C)C(=O)c1ccc(OC)cc1,active: 20.6 µM,
CCOc1ccc(NC(=O)CN(C)C(=O)c2cn(-c3ccccc3)nc2-c2cccs2)cc1OCC,"inconclusive: 23.1 µM [inhibitor, single point]",
CCCC1=NN2C(=N)/C(=C\c3cc(C)n(-c4cc(C)cc(C)c4)c3C)C(=O)N=C2S1,"inconclusive: 29.1 µM [inhibitor, single point]",
N/C(Cc1ccc([N+](=O)[O-])cc1)=N\OC(=O)c1ccccc1Br,"inconclusive: 20.6 µM [inhibitor, single point]",
COc1cc(NC(=O)CC(C)n2nc(C)cc2C)cc(OC)c1 (configuration not stated),inactive,
Cc1sc(-n2c(C)cc(/C=C3\SC(=S)NC3=O)c2C)c(C#N)c1C,inactive,
CC(=O)N(O)c1ccc(C=Cc2ccccc2)cc1,active: 0.411 µM,
CC1CCN(S(=O)(=O)c2nnc(NC(=O)c3cccc(Br)c3)s2)CC1,"inconclusive: 14.6 µM [inhibitor, partial curve]",
COc1ccc(-c2cc3nc(CCl)[nH]c(=O)c3s2)cc1,active: 4.11 µM,
CCS(=O)(=O)N1CCc2cc(C(=O)NCCc3ccc(OC)cc3)ccc21,"inconclusive: 13 µM [inhibitor, partial curve]",
COc1ccnc2c1c(=O)n(Cc1ccc(F)cc1)c(=O)n2C,inactive,
O=C(NCCc1ccccc1)C(=O)NCC(c1ccc2c(c1)OCO2)N1CCOCC1 (configuration not stated),"inconclusive: 20.6 µM [inhibitor, single point]",
Cc1ccc(S(=O)(=O)N2CCN(c3ncccn3)CC2)cc1C,"inconclusive: 13 µM [inhibitor, partial curve]",
